Experimental data published in PubChem BioAssay AID493208 (National Center for Advancing Translational Sciences (NCATS), 2011).
Out of some 44,000 compounds screened, about 340 (0.77%) were called active. Another 5% or so got no clear call; they are omitted. The call rests on the fitted dose curve; in most records, active means well fitted inhibition curve with a large enough effect; inconclusive means small, poorly fitted or top-dose-only effect; inactive means flat fitted curve, though single readings scatter. Some of the results follow.

Test: Acumen qHTS Assay for Inhibitors of the mTORC1 Signaling Pathway in MEF (Tsc2-/-, p53-/-) Cells: Sytravon;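 further: plate controls were DMSO for no effect and rapamycin for full effect; nearly all actives have a fitted effect of over 50% in size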
Details: phospho-rpS6 immunofluorescence/PI, 24 h; series mostly up to 38.3 µM; activity change, negative = inhibition: at the top concentration
Outline: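 Immunofluorescence of rpS6 phosphorylation in Tsc2-/-, p53-/- MEFs after 24 h compound exposure, normalized to propidium iodide signal. Activity is expressed as % positive cells, thresholded with 7.5 nM rapamycin.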

SMILES	activity change, negative = inhibition
Cc1cc(=O)[nH]c2nnc(SCC(=O)Nc3cc(C(F)(F)F)ccc3Cl)n12	inactive: -0.0087%
COC(=O)c1ccc(Cn2c(=O)cc(C)c3c(C)nn(C)c32)cc1	inactive: 4.13%
CC(=O)CSc1nc(-c2ccccc2)[nH]c1S(=O)(=O)c1ccc(C)cc1	inactive: -2.79%
CCOc1ccc(Sc2cc(C(=O)NCc3ccc(F)cc3)c3ccccc3n2)cc1	inactive: 0%
CCn1cc(C(=O)N2CCN(c3ccccc3)CC2)c(=O)c2cc(S(=O)(=O)N(C)C3CCCCC3)ccc21	inactive: -0.461%
CN(C)c1ccc(C(CNC(=O)COc2ccccc2)N2CCOCC2)cc1 (stereo not given)	inactive: 24.7%
O=C(CN1C(=O)CCSc2ccc(S(=O)(=O)N3CCCC3)cc21)Nc1cccc(Cl)c1	inactive: -6.65%
CCOc1ccc(NC(=O)Nc2c(C)n(C)n(-c3ccccc3)c2=O)cc1	inactive: -1.3%
CCN(CC)S(=O)(=O)c1ccc2c(c1)N(CC(=O)NCc1ccccc1)C(=O)CS2	inactive: 0.534%
COc1cc(Cl)c(C)cc1NC(=O)CSc1cc(=O)n(C)c2cc(Cl)ccc12	inactive: -0.916%
Cc1c(Cl)cccc1NC(=O)N1CCN(Cc2cc(=O)n3nc(-c4ccccc4F)sc3n2)CC1	inactive: 2.74%
CCCS(=O)(=O)N1CCC(N2CCN(Cc3ccc(C)cc3)C(=O)C2=O)CC1	inactive: 0%
Cc1nn(C)c2c1c(-c1ccccc1)cc(=O)n2Cc1ccccc1F	inactive: 0.243%
Cc1ccc(-c2noc(CCC(=O)Nc3ccc(F)cc3Cl)n2)cc1	inactive: -21%
COc1ccc(NC(=O)c2cccc(N3CCCS3(=O)=O)c2)cc1	inactive: -1.53%
NC(=O)CSc1ncc2c(n1)-c1ccccc1N(Cc1ccccc1)S2(=O)=O	inactive: -5.89%
COc1ccc(NS(=O)(=O)c2ccc3c(c2)CCN3C(=O)C2CC2)cc1OC	inactive: -5.82%
Cc1cc(C)c2c(=O)cc(C(=O)NCCc3ccc(S(N)(=O)=O)cc3)oc2c1	inactive: 0.309%
COc1cccc(CNC(=O)Cn2c(=O)c3cccn3c3ccc(F)cc32)c1OC	inactive: -4.58%
Cc1ccccc1CNC(=O)C(=O)NCC(c1ccco1)S(=O)(=O)c1ccc(F)cc1 (stereo not given)	inactive: 4.26%
Cc1cccc(NC(=O)CSc2nnc(-c3cccs3)o2)c1	inactive: -7.5%
Cc1noc2ncnc(Nc3ccc(F)cc3)c12	inactive: -0.818%
Cc1cccc(NC(=O)C(c2ccccc2)N2Cc3ccccc3C2=O)c1C (stereo not given)	inactive: -1.89%
COc1ccccc1N1CCN(C(=O)CCn2cnc3onc(-c4ccc(F)cc4)c3c2=O)CC1	inactive: 4.17%

SMILES	activity change, negative = inhibition
COc1cccc2cc(-c3nnc(Nc4ccccc4C)s3)c(=O)oc12	inactive: -1.4%
Cc1cc(F)ccc1NC(=O)C1CCCN(c2nnc(-n3c(C)ccc3C)s2)C1 (stereo not given)	inactive: -7.15%
Cc1cc(C)cc(N2C(=O)CS(=O)(=O)C23C(=O)N(Cc2ccc(F)cc2)c2ccc(C)cc23)c1 (stereo not given)	inactive: 5.91%
COc1ccc(NC(=O)Cn2c(=O)nc(-c3ccccc3)c3ccccc32)cc1OC	inactive: 1.01%
Cn1ncc(C(=O)N2CCN(c3ccccc3)CC2)c1C1CCN(C(=O)OC(C)(C)C)CC1	inactive: 0.431%
CCOc1ccc(-c2cc3nc(C4CCN(C(=O)OC(C)(C)C)CC4)c(C(=O)Nc4ccc(C(=O)OC)cc4)cn3n2)cc1	inactive: -15.8%
Cc1ccc(CCNC(=O)NCc2noc3ccc(C)cc23)cc1	inactive: -4.63%
Cc1cc(C)n2nc(CNC(=O)c3cccc(Cl)c3)nc2n1	inactive: -9.12%
CSc1ccc(CCNC(=O)C(C)n2nc(C)c3c(C)n(-c4ccccc4)nc3c2=O)cc1 (stereo not given)	inactive: -1.82%
Cc1cccc(CNC(=O)c2ccc(-c3nc(CS(=O)(=O)c4ccccc4)c(C)o3)cc2)c1	inactive: -3.62%
Cc1ccc(CCNC(=O)Cn2nc(C)c3c(C)n(-c4ccc(C)cc4)nc3c2=O)cc1	inactive: 0.469%
Cc1ccc(NC(=O)COc2ccc3oc4c(c3c2)CCCC4)c(C)c1	inactive: -0.595%
CN(C)c1ccc(-c2nc(-c3ccccn3)no2)cc1[N+](=O)[O-]	inactive: 1.73%
COc1ccccc1N1CCN(C(=O)C2CCN(S(=O)(=O)c3cccc4nonc34)CC2)CC1	inactive: -10.8%
Nc1ncc(S(=O)(=O)NCc2ccccc2F)cn1	inactive: 4.18%
Cc1ccc(Nc2cc(C(=O)NC3CCCC3)c3ccccc3n2)cc1C	inactive: -13.1%
CCOC(=O)c1c(C)n(-c2ccccc2)c2ccc(OC(=O)c3ccccc3Cl)cc12	inactive: 0.94%
CC(C)COc1ccc(C(=O)NCC2OCCc3ccccc32)cc1 (stereo not given)	inactive: 0.685%
CCOc1ccc(CCNC(=O)C2CCCN(c3nnc(C)c4c(C)n(-c5ccccc5)nc34)C2)cc1 (stereo not given)	inactive: -12.2%
NC(=O)c1c(NC(=O)c2noc3c2CCCC3)sc2c1CCCC2	inactive: -0.864%
COc1ccc2oc(=O)c(C(=O)NCCc3c(C)[nH]c4c(C)cccc34)cc2c1	inactive: 0.366%
CCOc1cc2[nH]c(=O)n(CCC(=O)N3CCN(c4cccc(Cl)c4)CC3)c(=O)c2cc1OCC	inactive: -6.35%
COC(=O)c1cc(NC(=O)CCS(=O)(=O)c2cc(Br)cc3c2N(C(=O)C2CC2)CC3)cc(C(=O)OC)c1	inactive: 1.69%
CCOC(=O)Cn1nc(C)c(NC(=O)COc2ccc(OC)cc2)c1C	inactive: 6.77%

SMILES	activity change, negative = inhibition
Cc1ccccc1C(=O)Nc1ccc(NC(=O)c2cccs2)cc1	inactive: 3.62%
CCOc1ccc(-c2csc3ncnc(Nc4cccc(O)c4)c23)cc1	inactive: -17.4%
CCn1c2ccccc2c2cc(NC(=O)COc3cc(C)c(Cl)c(C)c3)ccc21	inactive: 0.354%
COc1ccc(C(=O)NCC(c2ccco2)S(=O)(=O)c2ccccc2)cc1 (stereo not given)	inactive: 0.252%
CCOC(=O)c1c(C)oc2nc(C)nc(N3CCN(c4ccc(C)cc4C)CC3)c12	inactive: -9.01%
CC(=O)N1CCCc2cc(S(=O)(=O)N3CCC(C(=O)NCc4ccc(F)cc4)CC3)ccc21	inactive: -8.11%
Cc1cccc(NC(=O)C2CCC(CNS(=O)(=O)c3ccc4c(c3)CCCC(=O)N4)CC2)c1C (stereo not given)	inactive: 12.7%
CCCN(C(=O)C1CCN(S(=O)(=O)c2c(C)noc2/C=C/c2ccc(C)cc2)CC1)c1ccccc1F	inactive: -1.76%
Cc1nc(-c2ccc(F)cc2)sc1CCNC(=O)c1ccccc1	inactive: 0.833%
CC(=O)c1ccc(NC(=O)c2cccc(NC(=O)N3CCSc4ncccc43)c2)cc1	inactive: 0%
CCOCCCNC(=O)c1c(NC(=O)Cc2coc3c(C)c(C)ccc23)sc2c1CCC2	inactive: -17.4%
Cc1cc(C)cc(N(C)S(=O)(=O)c2nnc(NC(=O)COc3ccc(C)c(C)c3)s2)c1	inactive: 3.82%
CCCN(Cc1cc2cc(C)ccc2[nH]c1=O)C(=O)c1cccc(Cl)c1	inactive: -2.25%
COC(=O)c1cc(C)nc2c1c(=O)nc(SCc1cc(C)ccc1C)n2C1CC1	inactive: -0.0731%
COc1cc(OC)c(NC(=O)COc2ccccc2-c2nnc(-c3ccccc3)o2)cc1Cl	inactive: -12.4%
CCc1ccccc1Nc1nn2c(=O)c3ccc(C(=O)NCCc4ccccc4)cc3nc2s1	inactive: -0.807%
Cc1c(Cl)cccc1NC(=O)CN1C(=O)c2ccccc2Sc2ncccc21	inactive: -4.01%
Cc1cccc(C(=O)NC2(C(F)(F)F)N=C(c3ccccc3)N(Cc3ccccc3)C2=O)c1 (stereo not given)	inactive: -19.2%
CC(=O)N1CCc2c(sc3c2c(=O)n(-c2ccccc2Cl)c(=O)n3C)C1	inactive: 0.0261%
Cc1ccc(-c2c(CN3CCN(c4cc(Cl)ccc4C)CC3)csc2C)cc1	inactive: 1.14%
O=C(CSc1nc2ccccc2n1CC(=O)Nc1ccc(F)cc1F)Nc1ccc(F)cc1	inactive: -11.4%
CCOc1ccc2c(c1)c(=O)c(S(=O)(=O)c1ccc(C)cc1)cn2CC(=O)Nc1ccc(C)cc1	inactive: -17.7%
COc1ccc(-n2c(SCc3nc(-c4ccc(C)cc4)no3)nnc2-c2ccncc2)cc1	inactive: -1.98%
COCCCN1CCc2nc(SCC(=O)Nc3ccc(C)c(Cl)c3)[nH]c(=O)c2C1	inactive: 2.32%

SMILES	activity change, negative = inhibition
CCn1c(=O)c2cc(C(=O)NCCc3cccc(C)c3)sc2c2ccccc21	inactive: -3.48%
CCCCNc1sc(S(=O)(=O)CC)nc1S(=O)(=O)c1ccc(C)cc1	inactive: -12.3%
CNS(=O)(=O)c1cn(CC(=O)Nc2ccc(F)cc2F)cc1S(=O)(=O)NC	inactive: 0.847%
Cc1ccc(N2CC(c3nnc(Cc4ccc(Cl)cc4)o3)CC2=O)cc1 (stereo not given)	inactive: 3.04%
CC(=O)Nc1cc(C(=O)NCc2ccccc2)ccc1Sc1ccc(C)cc1	inactive: 8.75%
CCc1ccccc1NC(=O)CSc1nnc(-c2cc(OC)c(OC)c(OC)c2)o1	inactive: 0.318%
Cc1cccc(C(=O)Nc2ccc(-c3nc4ccccc4s3)c(C)c2)c1	inactive: -11%
Cc1ccc(CNC(=O)C(C(C)C)N2Cc3ccccc3C2=O)cc1 (stereo not given)	inactive: -1.85%
CCN(c1ccc(OC)cc1)S(=O)(=O)c1c(C(=O)N2CCCCCC2)c(C)n(C)c1C	inactive: -11.2%
COc1ccc(N2CCN(CC(O)COc3ccccc3C(C)(C)C)CC2)cc1 (stereo not given)	inactive: -17.1%
O=C(NC1CCCCC1)c1ccc(Cn2c(SCc3cccc(F)c3)nc3cccnc32)cc1	inactive: 0%
CN(C(=O)CSc1cn(CC(=O)N2CCCCCC2)c2ccccc12)c1ccccc1	inactive: -6.77%
CCOCCCNC(=O)c1cnc2sc(N3CCCCCC3)nn2c1=O	inactive: -3.94%
CCOc1ccc(NC(=O)Cn2c(=O)n(CCc3ccccc3)c(=O)c3c4c(sc32)CN(C(C)=O)CC4)cc1	inactive: -1.54%
CCc1ccc(NC(=O)CSC2=Nc3ccccc3C3=NC(CCC(=O)NCc4ccccc4OC)C(=O)N23)cc1 (stereo not given)	inactive: -3.14%
O=C(CCc1nc(-c2ccccc2F)no1)Nc1cccc(C(F)(F)F)c1	inactive: -13.2%
Cc1ccc(C)c(N2CCN(C(=O)c3cccc(-n4c(C)nc5cccnc54)c3)CC2)c1	inactive: -8.39%
Cc1ccc(CC(=O)N(Cc2nc(-c3ccc(C)cc3)no2)C(C)C)cc1	inactive: -5.2%
Cc1nn(-c2ccccc2)c(OC(=O)c2ccc(Br)cc2)c1S(=O)(=O)c1ccccc1	inactive: 7.95%
CCOc1ccc(OCC)c(NC(=O)c2cc(C)nc3c2c(C)nn3-c2cccc(Cl)c2C)c1	inactive: 1.14%
Cn1c(=O)c2sccc2n2c(CCCC(=O)Nc3ccc(F)cc3F)nnc12	inactive: 0%
CCn1c(CN2CCN(c3cccc(Cl)c3)CC2)nc2c1c(=O)[nH]c(=O)n2C	inactive: -13.8%
Cc1cc2nn(-c3ccc(Cl)cc3)nc2cc1NC(=O)C(C)C	inactive: 4.62%
